In a collection of fitness landscapes (doi:10.1126/science.1257360):
The other results are listed elsewhere or left out.

B1: PhoQ; a variant is named by its letters at X, in order, P23837 (parent)
chain: MKKLLRLFFPLSLRVRFLLATAAVVLVLSLAYGMVALIGYSVSFDKTTFRLLRGESNLFYTLAKWENNKLHVELPENIDKQSPTMTLIYDENGQLLWAQRDVPWLMKMIQPDWLKSNGFHEIEADVNDTSLLLSGDHSIQQQLQEVREDDDDAEMTHSVAVNVYPATSRMPKLTIVVVDTIPVELKSSYMVWSWFIYVLSANLLLVIPLLWVAAWWSLRPIEALAKEVRELEEHNRELLNPATTRELTSLVRNLNRLLKSERERYDKYRTTLTDLTHSLKTPLXXLQXXLRSLRSEKMSVSDAEPVMLEQISRISQQIGYYLHRASMRGGTLLSRELHPVAPLLDNLTSALNKVYQRKGVNISLDISPEISFVGEQNDFVEVMGNVLDNACKYCLEFVEISARQTDEHLYIVVEDDGPGIPLSKREVIFDRGQRVDTLRPGQGVGLAVAREITEQYEGKIVAGESMLGGARMEVIFGRQHSAPKDE

Variants of: B1
Assay: enrichment ratio after two sorts for PhoP signalling (ratio (wild type AVST 3.29)); higher = more functional
Conditions: with PhoP (E. coli)

Row | Variant | enrichment ratio
1 | YCQP | ≤ 0.25
2 | AVPC | ≤ 0.25
3 | NWVM | ≤ 0.25
4 | SQFM | 0.495
5 | HVRP | ≤ 0.25
6 | GPEW | ≤ 0.25
7 | GLTE | ≤ 0.25
8 | VMNQ | ≤ 0.25
9 | WMTP | ≤ 0.25
10 | HTVS | ≤ 0.25
11 | PWFM | ≤ 0.25
12 | GFKA | ≤ 0.25
13 | NFVD | ≤ 0.25
14 | AQFV | ≤ 0.25
15 | WPCF | ≤ 0.25
16 | LKHA | ≤ 0.25
17 | KGAD | ≤ 0.25
18 | SCWI | 1.23
19 | IPAY | ≤ 0.25
20 | RQPH | ≤ 0.25
21 | QLVR | ≤ 0.25

Row | Variant | enrichment ratio
22 | THAY | 5.94
23 | QASF | 2.77
24 | PRFC | ≤ 0.25
25 | PVHI | ≤ 0.25
26 | ALVC | ≤ 0.25
27 | PDNR | ≤ 0.25
28 | GKFN | ≤ 0.25
29 | PHKA | ≤ 0.25
30 | HDMP | ≤ 0.25
31 | EGRE | ≤ 0.25
32 | QFMQ | ≤ 0.25
33 | HYFG | ≤ 0.25
34 | FVMT | ≤ 0.25
35 | DEVT | ≤ 0.25
36 | TCIH | ≤ 0.25
37 | QYQH | ≤ 0.25
38 | VNCG | 0.455
39 | NVWH | ≤ 0.25
40 | LFCH | ≤ 0.25
41 | EYVS | ≤ 0.25
42 | AGEE | ≤ 0.25

Row | Variant | enrichment ratio
43 | YRVS | ≤ 0.25
44 | WRNL | ≤ 0.25
45 | RTHK | ≤ 0.25
46 | ATVM | 6.8
47 | LYHL | ≤ 0.25
48 | YNNC | 0.618
49 | HTLH | ≤ 0.25
50 | ICVP | ≤ 0.25
51 | YHMC | ≤ 0.25
52 | LNGL | ≤ 0.25
53 | MHRR | ≤ 0.25
54 | ALLY | ≤ 0.25
55 | HTPQ | ≤ 0.25
56 | DHCL | ≤ 0.25
57 | TQMA | 12.7
58 | SPAI | ≤ 0.25
59 | KCTE | ≤ 0.25
60 | EKLR | ≤ 0.25
61 | QNVM | ≤ 0.25
62 | ISET | ≤ 0.25
63 | GYAQ | ≤ 0.25

Row | Variant | enrichment ratio
64 | DRHE | ≤ 0.25
65 | KCEP | ≤ 0.25
66 | HMTN | ≤ 0.25
67 | NYKN | ≤ 0.25
68 | YRDN | ≤ 0.25
69 | YTAF | ≤ 0.25
70 | EVHV | ≤ 0.25
71 | IFFD | ≤ 0.25
72 | ISWY | ≤ 0.25
73 | PEWH | ≤ 0.25
74 | MHCL | ≤ 0.25
75 | MRRK | ≤ 0.25
76 | LTAM | ≤ 0.25
77 | RHPR | ≤ 0.25
78 | NDVD | ≤ 0.25
79 | DWNI | ≤ 0.25
80 | WDSP | ≤ 0.25
81 | GTDD | ≤ 0.25
82 | LLSV | ≤ 0.25
83 | SHHK | ≤ 0.25
84 | TSFL | 0.706
